Reference: PMC4336329 (PLoS ONE, 2015)
Hit rate of the full screen: of about 310,000 compounds, about 2,200 (0.71%) showed an effect of 50% or more. The effect is printed as a negative number. The list shows a part of the results.

What follows are compounds tested against human ether-à-go-go-related gene (hERG) potassium channel (human, UniProt Q12809) (assay: primary screen, population patch clamp on CHO cells stably expressing hERG).
Chain of human ether-à-go-go-related gene (hERG) potassium channel (Q12809 whole entry, looked up): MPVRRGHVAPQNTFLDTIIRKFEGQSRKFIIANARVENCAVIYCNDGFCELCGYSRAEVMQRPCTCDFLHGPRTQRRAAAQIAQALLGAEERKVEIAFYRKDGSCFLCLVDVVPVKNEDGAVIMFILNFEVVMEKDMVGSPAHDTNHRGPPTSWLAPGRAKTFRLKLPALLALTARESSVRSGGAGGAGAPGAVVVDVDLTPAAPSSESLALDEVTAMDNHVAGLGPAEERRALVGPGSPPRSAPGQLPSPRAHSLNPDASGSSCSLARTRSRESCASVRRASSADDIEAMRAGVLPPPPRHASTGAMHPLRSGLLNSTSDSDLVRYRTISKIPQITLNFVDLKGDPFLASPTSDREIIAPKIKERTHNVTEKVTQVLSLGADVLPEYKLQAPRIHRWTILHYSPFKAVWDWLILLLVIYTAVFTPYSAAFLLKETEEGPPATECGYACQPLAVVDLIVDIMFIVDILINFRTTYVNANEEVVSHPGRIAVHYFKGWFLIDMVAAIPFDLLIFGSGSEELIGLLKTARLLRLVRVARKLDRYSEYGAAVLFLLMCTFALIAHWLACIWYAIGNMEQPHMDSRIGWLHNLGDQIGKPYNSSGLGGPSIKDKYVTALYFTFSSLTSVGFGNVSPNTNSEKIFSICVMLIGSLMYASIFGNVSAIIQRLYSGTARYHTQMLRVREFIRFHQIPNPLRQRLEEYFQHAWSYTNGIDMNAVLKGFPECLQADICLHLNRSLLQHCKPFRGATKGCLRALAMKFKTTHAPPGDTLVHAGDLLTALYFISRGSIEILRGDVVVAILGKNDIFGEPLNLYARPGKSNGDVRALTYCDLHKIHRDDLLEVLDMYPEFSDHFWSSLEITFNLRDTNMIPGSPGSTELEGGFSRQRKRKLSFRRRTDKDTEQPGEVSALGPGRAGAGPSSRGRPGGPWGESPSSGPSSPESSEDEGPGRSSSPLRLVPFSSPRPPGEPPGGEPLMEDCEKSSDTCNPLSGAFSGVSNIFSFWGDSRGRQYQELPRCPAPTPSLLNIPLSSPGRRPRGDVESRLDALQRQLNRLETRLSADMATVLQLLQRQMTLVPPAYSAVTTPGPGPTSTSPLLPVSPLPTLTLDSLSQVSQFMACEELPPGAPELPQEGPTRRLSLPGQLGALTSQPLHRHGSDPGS

SMILES | hERG current change (%, negative = inhibition) at 1uM [%]
CC1CCCN(C(=O)Cn2c(-c3nonc3N)nc3ccccc32)C1 (centres unmarked) | 5.09
COc1cc(Cl)c(C)cc1NC(=O)COC(=O)CCc1nc2ccccc2c(=O)[nH]1 | 9.06
CCN(c1ccccc1)S(=O)(=O)c1ccc(C(=O)Nc2nnc(CSC)o2)cc1 | 5.5
Nn1c(SCC(=O)Nc2cccc(F)c2)nnc1C1CCCCC1 | 16.6
Cc1c(Nc2nc3ccccc3nc2NS(=O)(=O)c2ccccc2)c(=O)n(-c2ccccc2)n1C | -40.2
N#Cc1ccc(CSc2nnc(-c3ccncc3)o2)cc1 | -3.56
Cc1cc(OC(=O)c2ccc(C(F)(F)F)cc2)c([N+](=O)[O-])c(=O)[nH]1 | 10.4
CCCS(=O)(=O)c1c(S(=O)(=O)CCC)c2cnccn2c1C(=O)c1ccc(CC)cc1 | 0.628
COc1cc(OC)cc(C(=O)NNC(=O)c2cc(=O)[nH]c3ccccc23)c1 | -2.29
O=C(Nc1ccccc1)NC1CCCc2ccccc21 (centres unmarked) | 17.5
COc1ccnc2c1c(=O)n(Cc1ccc(F)cc1)c(=O)n2C | 12.5
COc1ccc2nc3ccccc3nc2c1NC(=O)c1ccc(Cl)cc1 | 13.7
CN(C)S(=O)(=O)c1ccc(N2CCCC2)c(C(=O)Nc2nc3ccccc3s2)c1 | 6.61
COc1ccc2c(c1)C(c1ccc(N3CCOCC3)cc1)=NNC(c1cccnc1)=N2 | 8.97
O=C(NCC(=O)N(c1ccccc1F)C(C(=O)NC1CCCC1)c1ccco1)c1ccco1 (centres unmarked) | 2.58
O=C(CCSCCC(=O)NCCN1CCOCC1)NCCN1CCOCC1 | 13.5
COc1ccc(O)c(/C=N/N2CCCCC2)c1 | 6.85
O=C(Nc1ccc(F)cc1)Nc1cnccn1 | 14
Cc1cc(C)c([N+](=O)[O-])cc1NC(=O)CCS(=O)(=O)c1ccccc1 | -3.95

SMILES | hERG current change (%, negative = inhibition) at 1uM [%]
CCn1c(SCC(=O)Nc2cc(C)on2)nnc1-c1ccncc1 | 16.3
COc1ccccc1N1CCN(C(=O)CN(Cc2ccccc2)S(C)(=O)=O)CC1 | -7.63
Cc1ccccc1NC(=O)C1CCCN(C(=O)NCc2ccccc2)C1 (centres unmarked) | 13.6
Cc1cc(C)cc(N(CC(=O)O)S(=O)(=O)c2c(C)noc2C)c1 | 6.63
CCOC(=O)C1=C(COC(=O)C(CC)Oc2ccccc2)NC(=O)NC1C (centres unmarked) | 6.26
Cc1ccc(NC(=S)N2CCCC(CO)C2)c(C)c1 (centres unmarked) | 12.6
Cc1nc2ccccc2c(=O)n1NC(=O)c1ccc(F)cc1Cl | 2.12
COc1ccccc1C(c1nnnn1C(C)(C)C)N1CCN(C(=O)c2ccco2)CC1 (centres unmarked) | -13.2
COc1ccc(-c2n[nH]c(=S)o2)c(OC)c1 | 18.2
COc1cccc2cc(C(=O)C3=C(O)C(=O)N(c4cc(C)on4)C3c3cccs3)oc12 (centres unmarked) | 14.8
Cc1onc(-c2c(Cl)cccc2Cl)c1NC(=O)N1CCSCC1 | 5.17
Cc1ccc(/C=N/NC(=O)CN2CCN(Cc3ccccc3)CC2)o1 | 7.9
O=C(C1CCCN(Cc2ccncc2)C1)N1CCc2ccccc2C1.O=C(O)C(=O)O (centres unmarked) | 7.77
CCCC(=O)Nc1ccc(C(=O)Nc2cccc(OC)c2)cc1 | 5.91
C=CCCC(=O)Nc1nc(C)c(-c2csc(Nc3ccc(Cl)cc3Cl)n2)s1 | 14.4
O=C(CO/N=C/c1ccccc1OC(F)F)N1CCc2ccccc21 | 5.34
COc1ccc(-c2ccc(OC(=O)NC3CCS(=O)(=O)C3)cc2)cc1 (centres unmarked) | 13.1
CC(=O)Oc1ccc(C2(C)CC(C)(C)Oc3cc(OC(C)=O)ccc32)c(OC(C)=O)c1 (centres unmarked) | 16.4
O=C(NCc1ccc(Cl)cc1)c1ccc(Br)o1 | 0.112

SMILES | hERG current change (%, negative = inhibition) at 1uM [%]
CCN1CCN(CCNC(=O)c2ccc3c(c2)NC(=O)/C(=C\c2ccc(OC)c(OC)c2)S3)CC1 | 17.4
O=C(O)CCn1c(=S)oc2ccccc21 | 6.49
C=CCn1c(-c2ccc(OC)cc2)csc1=Nc1c(C)n(C)n(-c2ccccc2)c1=O | -0.904
CC(C)c1nc(SCC(=O)NCC2CCCO2)c2c(=O)n(C)c(=O)n(C)c2n1 (centres unmarked) | 9.01
COc1cccc(C(c2sc3ncnn3c2O)N2CCc3ccccc3C2)c1 (centres unmarked) | 8.06
COc1ccc(OC)c(C2CC(=O)NC(SC)=C2C#N)c1 (centres unmarked) | 7.92
COc1ccc(-c2csc3ncnc(N4CCN(c5ccccc5)CC4)c23)cc1 | 11.6
O=C(CCc1cccc(Cl)c1)N1CCCC(Nc2ccccc2)C1 (centres unmarked) | 16.4
O=C(COC(=O)CC(c1ccccc1)c1ccccc1)Nc1c(F)cccc1F | -2.04
O=C(/C=C/c1ccccc1)Oc1cccc2cccnc12 | 14.7
CNc1ccc2c3c(cccc13)C(=O)N(C)C2=O | 5.7
O=C(CSc1nc2[nH]ncc2c(=O)[nH]1)Nc1cccc(Cl)c1 | 9.25
CCC1C(=O)n2nc(-c3ccccc3)cc2N=C1C (centres unmarked) | 3.06
N#Cc1c(SCC(=O)Nc2nc3ccccc3s2)sc2c(O)cc(=O)[nH]c12 | 19.4
Cc1ccc(S(=O)(=O)N2CCN(C(=O)c3cc(-c4cccs4)nn3-c3ccccc3)CC2)cc1 | 11.7
CCOC(=O)C1CCN(C(=O)c2ccccc2NS(=O)(=O)c2ccc(C)cc2)CC1 | 12.6
Cc1cccc(C2NC(=O)c3ccccc3O2)c1 (centres unmarked) | 9.89
O=C(Nc1nncs1)c1ccc(Br)c(S(=O)(=O)N2CCCC2)c1 | -1.87
